Measured values taken from publication PMC11437902.
These are yes or no findings as the source states them, for the method shown. In cells and extracts the contact can be indirect. Some results given as binding are weak or reduced against the parent protein; the word gives no strength.

Protein sequences, listed by entry. Tags and fused reporters are not part of them. Lines headed by an entry give the natural chain unless they say otherwise; changes in a name come on top. Chains listed by the source or under a name are the forms on record and can include a tag or linker. Residues count along the entry.
UniProt Q86WJ1: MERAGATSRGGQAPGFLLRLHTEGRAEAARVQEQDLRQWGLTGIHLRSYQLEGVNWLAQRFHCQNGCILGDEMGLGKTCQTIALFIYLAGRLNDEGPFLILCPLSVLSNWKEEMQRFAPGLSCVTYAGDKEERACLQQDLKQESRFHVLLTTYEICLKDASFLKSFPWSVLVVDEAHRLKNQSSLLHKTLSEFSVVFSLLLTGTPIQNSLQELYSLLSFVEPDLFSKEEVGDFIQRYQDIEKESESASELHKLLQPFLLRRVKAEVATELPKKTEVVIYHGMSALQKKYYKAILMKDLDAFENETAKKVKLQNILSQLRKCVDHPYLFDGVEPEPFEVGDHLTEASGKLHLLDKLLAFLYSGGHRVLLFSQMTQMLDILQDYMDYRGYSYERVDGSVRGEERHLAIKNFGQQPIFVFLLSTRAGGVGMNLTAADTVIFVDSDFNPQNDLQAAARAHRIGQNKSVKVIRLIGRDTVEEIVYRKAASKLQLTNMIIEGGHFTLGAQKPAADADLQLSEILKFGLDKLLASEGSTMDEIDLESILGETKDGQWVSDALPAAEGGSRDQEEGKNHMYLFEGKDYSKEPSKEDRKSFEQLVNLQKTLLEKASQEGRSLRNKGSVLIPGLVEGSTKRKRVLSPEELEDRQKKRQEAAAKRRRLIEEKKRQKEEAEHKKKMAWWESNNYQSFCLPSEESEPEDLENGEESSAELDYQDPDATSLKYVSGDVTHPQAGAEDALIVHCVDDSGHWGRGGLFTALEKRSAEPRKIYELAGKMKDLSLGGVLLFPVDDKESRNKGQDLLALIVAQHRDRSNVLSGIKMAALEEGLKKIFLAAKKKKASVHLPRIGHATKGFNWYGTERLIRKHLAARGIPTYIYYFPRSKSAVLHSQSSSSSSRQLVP
human CHD1L R611* truncated variant, 3×Flag-tagged: residues 1-610 of Q86WJ1
UniProt P09874: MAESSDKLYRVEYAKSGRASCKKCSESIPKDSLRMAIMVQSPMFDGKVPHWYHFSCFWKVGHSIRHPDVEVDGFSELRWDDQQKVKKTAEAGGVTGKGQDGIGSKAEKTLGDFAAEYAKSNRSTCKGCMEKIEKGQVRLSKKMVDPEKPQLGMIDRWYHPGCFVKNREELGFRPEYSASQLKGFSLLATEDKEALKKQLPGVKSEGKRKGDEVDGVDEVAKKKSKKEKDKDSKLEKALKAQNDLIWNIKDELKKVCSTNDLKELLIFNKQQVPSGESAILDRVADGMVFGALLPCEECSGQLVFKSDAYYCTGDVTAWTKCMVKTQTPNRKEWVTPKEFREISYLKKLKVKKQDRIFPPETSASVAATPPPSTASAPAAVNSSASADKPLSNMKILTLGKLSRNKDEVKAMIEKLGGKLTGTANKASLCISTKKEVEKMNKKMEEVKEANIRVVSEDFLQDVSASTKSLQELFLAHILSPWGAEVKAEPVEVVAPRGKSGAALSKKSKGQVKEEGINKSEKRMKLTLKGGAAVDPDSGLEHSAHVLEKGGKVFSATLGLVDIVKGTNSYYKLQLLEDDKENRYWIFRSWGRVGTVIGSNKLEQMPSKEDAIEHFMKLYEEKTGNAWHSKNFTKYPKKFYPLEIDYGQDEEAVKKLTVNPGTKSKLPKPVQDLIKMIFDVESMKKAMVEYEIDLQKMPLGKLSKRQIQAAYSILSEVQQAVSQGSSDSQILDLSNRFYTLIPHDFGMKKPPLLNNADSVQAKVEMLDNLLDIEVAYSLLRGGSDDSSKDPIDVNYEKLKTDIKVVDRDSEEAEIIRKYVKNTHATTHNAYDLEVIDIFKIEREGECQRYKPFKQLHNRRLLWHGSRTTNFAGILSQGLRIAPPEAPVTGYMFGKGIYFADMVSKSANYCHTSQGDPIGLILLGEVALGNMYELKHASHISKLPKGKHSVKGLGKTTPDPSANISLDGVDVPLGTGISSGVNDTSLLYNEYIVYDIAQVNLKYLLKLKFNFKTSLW

Columns and labels:
[1] = molecular target: human CHD1L R319Q variant, 3×Flag-tagged (human) (UniProt Q86WJ1); assay: co-IP; lysates of 293FT cells transfected with flag-tagged CHD1L (WT or mutant) without PARP1 construct; endogenous PARP1; magnetic beads with anti-FLAG or anti-PARP1 antibody, overnight at 4 °C; western blot
[2] = molecular target: human CHD1L R611* truncated variant, 3×Flag-tagged (human) (UniProt Q86WJ1); assay: as above
[3] = molecular target: human CHD1L wild-type, 3×Flag-tagged (human) (UniProt Q86WJ1); assay: as above
[4] = molecular target: human CHD1L R319Q variant, 3×Flag-tagged (human) (UniProt Q86WJ1); assay: co-IP; lysates of 293FT cells co-transfected with flag-tagged CHD1L (WT or mutant) and HA-tagged PARP1; magnetic beads with anti-FLAG or anti-HA antibody, overnight at 4 °C; mouse IgG beads as negative control; western blot
[5] = molecular target: human CHD1L R611* truncated variant, 3×Flag-tagged (human) (UniProt Q86WJ1); assay: as above
[6] = molecular target: human CHD1L wild-type, 3×Flag-tagged (human) (UniProt Q86WJ1); assay: as above

| Substance | binding [1] | binding [2] | binding [3] | binding [4] | binding [5] | binding [6] |
| --- | --- | --- | --- | --- | --- | --- |
| endogenous PARP1 protein (from UniProt P09874 1-1014) | binds | no binding | binds | – | – | – |
| human PARP1, HA-tagged (from UniProt P09874 1-1014) | – | – | – | binds | no binding | binds |
